Inconclusive results, whose numbers are uncertain, are shown with a selection of clear calls. For part of these data: A potency beside an inconclusive call is a rough fit, not a confirmed value. The source made the active and inactive calls. Unless noted, the call rests on the fitted dose curve; in most records, active means well fitted curve in the direction sought with a large enough effect; inconclusive means small, poorly fitted or top-dose-only effect, or another doubt; inactive means no such curve, though single readings can be large; an effect the other way counts as inactive or inconclusive.
Tests used:
[1] = Primary qHTS for inhibitors of nuclear receptor binding SET domain protein 2 (NSD2) in an RCH-ACV wild type WT cells (2C) (AID 1645877); conditions: activity change, negative = cell killing: at 44.9 µM (top of the series) unless noted; further: nearly all actives have a fitted effect of over 70% in size; further: potency means the concentration at half of the fitted maximal effect
[2] = Primary fluorescence-based thiol-reactive (MSTI) qHTS assay for identification of artifact compounds. (AID 1845221);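 further: potency means the concentration at half of the fitted maximal effect; thiol-reactive compounds lower the probe fluorescence signal; nearly all actives have a fitted effect of over 65% in size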
Method in brief: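 Curve-fitted percent inhibition (4-parameter Hill) derived from fluorescence, Ex 525/Em 598 nm, scaled with Acetyl-MSTI and MSTI; 1 h incubation at room temperature.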

[3] = system: CAOV3; test: Primary qHTS to identify gynecologic anti-cancer compounds using libraries of approved drugs and bioactive compounds (AID 1345084); conditions: Gynecologic cancer cell panel viability, ATPlite luminescence, 48 h; series mostly up to 57.5 µM; further: nearly all actives have a fitted effect of over 55% in size; further: potency means the concentration at half of the fitted maximal effect
Method in brief: (§1)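 Cytotoxicity screen measuring ATP content by luciferase luminescence. Each compound is applied at five concentrations for 48 h at 37 C with 5% CO2.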

[4] = system: SKOV3; test: as above; conditions: Gynecologic cancer cell panel viability, ATPlite luminescence, 48 h; series mostly up to 57.5 µM
Method in brief: as §1

[5] = Primary qHTS for inhibitors of nuclear receptor binding SET domain protein 2 (NSD2) in an isogenic RCH-ACV NSD2 p.E1099K mutant (9B) (AID 1645876); conditions: activity change, negative = viability loss: at 44.9 µM (top of the series) unless noted; further: nearly all actives have a fitted effect of over 70% in size; further: potency means the concentration at half of the fitted maximal effect
[6] = qHTS Assay for Identifying Gametocytocidal Compounds (AID 743244); further: potency means the concentration at half of the fitted maximal effect; conditions: P. falciparum 3D7 stage III-V gametocytes, alamarBlue, 72 h; max response: hits give low values
Method in brief: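 Stage III–V gametocytes of P. falciparum 3D7 were seeded at 20,000 cells/well onto pre-dispensed compounds. After 72 h, 37 °C, 5% CO2, alamarBlue was added for another 24 h.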

[7] = P-glycoprotein substrates identified in KB-8-5-11 adenocarcinoma cell line, qHTS therapeutic library screen (AID 1346987); conditions: activity change, negative = cytotoxicity: at 44.5 µM (top of the series); further: nearly all actives have a fitted effect of over 65% in size
Method in brief: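 Human cervical adenocarcinoma KB-8-5-11 cells, selected in colchicine to over-express P-gp and assayed without it, were exposed for 72 h to titrated compounds. An ATP-based luminescent viability signal gave AC50.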

[8] = target: Phospholipid hydroperoxide glutathione peroxidase GPX4 (Homo sapiens) (UniProt P36969); test: Primary qHTS Assay for Inhibitors of Recombinant Selenoprotein Glutathione Peroxidase 4 (GPX4) (AID 1845192); conditions: activity change, negative = inhibition: at 50 µM (top of the series) unless noted; further: potency means the concentration at half of the fitted maximal effect; nearly all actives have a fitted effect of over 65% in size
Method in brief: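 qHTS, GR-coupled: GPX4 200 nM + cpd 30 min RT → GSH 1 mM, NADPH 0.5 mM, GR 100 nM → CHP 0.5 mM start; fluor 340/450 at t0 and t15 min; no-enzyme wells as control.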

[9] = qHTS of pediatric cancer cell lines to identify multiple opportunities for drug repurposing: Primary screen for SK-N-MC cells (AID 1347093); conditions: SK-N-MC viability, CellTiter-Glo luminescence, 48 h; activity change, negative = cytotoxic: at 46 µM (top of the series)
Method in brief: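 Metabolically active cells were quantified by ATP-dependent luminescence (CellTiter-Glo, 15 min at room temperature) following 48 h treatment. Cells had been plated at 500-1,000 per well and settled for 5 h beforehand.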

[10] = qHTS of pediatric cancer cell lines to identify multiple opportunities for drug repurposing: Primary screen for NB-EBc1 cells (AID 1347095)
Method in brief: (§2)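 Primary screen of approved and investigational compounds on cells in growth media at 37 degrees C, 5% CO2. MIPE set at 11-point and NPC set at 8-point dilutions; viability scored by ATP-based luminescence at 48 hours.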

[11] = qHTS of pediatric cancer cell lines to identify multiple opportunities for drug repurposing: Primary screen for Saos-2 cells (AID 1347097); conditions: Saos-2 viability, CellTiter-Glo ATP luminescence, 48 h; activity change, negative = cytotoxic: at 46 µM (top of the series); further: potency means the concentration at half of the fitted maximal effect; nearly all actives have a fitted effect of over 40% in size
Method in brief: as §2

[12] = qHTS of pediatric cancer cell lines to identify multiple opportunities for drug repurposing: Primary screen for BT-12 cells (AID 1347101); further: nearly all actives have a fitted effect of over 25% in size
Method in brief: (§3)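 Cells (500-1,000/well) rested 5 h, then received compounds for 48 h; metabolically active cells were measured by CellTiter-Glo luminescence. Final concentrations spanned up to 46 µM (MIPE, 11-point) or 0.59 nM-46 µM (NPC, 8-point) in primary screens, 11-point in follow-ups.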

[13] = qHTS of pediatric cancer cell lines to identify multiple opportunities for drug repurposing: Primary screen for control Hh wild type fibroblast cells (AID 1347106);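 further: a drop in luminescence marks cytotoxicity and a rise apparent proliferation; nearly all actives have a fitted effect of over 55% in size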
Method in brief: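 Cells (500-1,000/well) in growth media were settled 5 h at 37 degrees C, then given compounds for 48 h. Viability was read as CellTiter-Glo luminescence. Primary runs used MIPE at 11 points (0.78 nM-46 µM) and NPC at 8 points (0.59 nM-46 µM); follow-ups used 11 points.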

[14] = qHTS of pediatric cancer cell lines to identify multiple opportunities for drug repurposing: Primary screen for Rh41 cells (AID 1347108);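 further: luminescence drop marks cytotoxic hits; nearly all actives have a fitted effect of over 70% in size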
Method in brief: as §2

[15] = target: Cytochrome P450 2D6 (Homo sapiens) (UniProt P10635); test: Cytochrome P450 family 2 subfamily D member 6 (CYP2D6) small molecule antagonists: luciferase biochemical (cell-free) qHTS assay (AID 1645840; active means well fitted curve in the direction sought with a large enough effect in the repeat runs; inconclusive means weak or mixed curves; inactive means no such curve, though single readings can be large; an effect the other way counts as inactive or inconclusive; further: nearly all actives have a fitted effect of over 55% in size)
Method in brief: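 P450-Glo CYP2D6 system: proluciferin substrate converted by enzyme to luciferin, read by luminescence proportional to activity. Enzyme-substrate mix with compound 10 min at room temperature, then NADPH regeneration 1 h before detection reagent.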

[16] = system: Tov-21-G; test: Primary qHTS to identify gynecologic anti-cancer compounds using libraries of approved drugs and bioactive compounds (AID 1345084); conditions: Gynecologic cancer cell panel viability, ATPlite luminescence, 48 h; series mostly up to 57.5 µM; further: nearly all actives have a fitted effect of over 55% in size; further: potency means the concentration at half of the fitted maximal effect
Method in brief: as §1

[17] = Drug repurposing screens with cells derived from glioblastoma tumor samples (AID 1345199); conditions: GBM patient neurospheres viability, ATP luminescence, 48 h; Potency: tumour line A unless noted; series mostly up to 46 µM; further: potency means the concentration at half of the fitted maximal effect; nearly all actives have a fitted effect of over 40% in size
Method in brief: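 Primary testing used CD133+ neurospheres from four GBM patients, seven concentrations, 48 h exposure and ATP-based viability; confirmation added three slower-growing patient lines.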

[18] = qHTS of pediatric cancer cell lines to identify multiple opportunities for drug repurposing: Primary screen for DAOY cells (AID 1347090); further: nearly all actives have a fitted effect of over 55% in size
Method in brief: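 Eight- or eleven-point concentration series, 48 h treatment at 37 degrees C in growth media; readout CellTiter-Glo luminescence. Potency and efficacy were taken from the concentration-response curves.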

[19] = qHTS of pediatric cancer cell lines to identify multiple opportunities for drug repurposing: Primary screen for SK-N-SH cells (AID 1347098);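 further: DMSO served as neutral control and bortezomib at 2.3 µM as positive control; nearly all actives have a fitted effect of over 65% in size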
Method in brief: as §3

[20] = Primary qHTS for small molecule stabilizers of the endoplasmic reticulum resident proteome: Secreted ER Calcium Modulated Protein (SERCaMP) assay (AID 1508630); conditions: SH-SY5Y GLuc-SERCaMP (Gaussia luciferase released on ER calcium loss) secretion, thapsigargin, luminescence; activity change, negative = inhibition: at 38.4 µM (top of the series) unless noted; further: potency means the concentration at half of the fitted maximal effect
Method in brief: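 The SH-SY5Y reporter protocol was run at 3 concentrations up to 38.3 uM (primary) or 11 concentrations (follow-up): 16 h compound, 100 nM thapsigargin for 4 h, then extracellular luciferase luminescence.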

Measured: Potency
Tags describe the fitted curve by direction and shape.

UniProt P10635, sequence (P10635 whole entry, looked up): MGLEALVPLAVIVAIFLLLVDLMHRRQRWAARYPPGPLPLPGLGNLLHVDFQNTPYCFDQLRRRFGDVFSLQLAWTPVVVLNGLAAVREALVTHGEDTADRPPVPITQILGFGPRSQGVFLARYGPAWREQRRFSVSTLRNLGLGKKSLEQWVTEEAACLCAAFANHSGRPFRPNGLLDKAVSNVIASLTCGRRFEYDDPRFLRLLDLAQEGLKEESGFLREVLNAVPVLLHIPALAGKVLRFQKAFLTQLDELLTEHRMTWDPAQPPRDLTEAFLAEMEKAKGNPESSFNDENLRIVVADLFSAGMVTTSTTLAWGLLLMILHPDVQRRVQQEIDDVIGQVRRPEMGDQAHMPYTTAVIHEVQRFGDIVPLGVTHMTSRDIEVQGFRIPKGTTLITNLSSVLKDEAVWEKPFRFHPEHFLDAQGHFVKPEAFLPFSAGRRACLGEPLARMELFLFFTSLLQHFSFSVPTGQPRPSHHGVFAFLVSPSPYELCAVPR
UniProt P36969, sequence (P36969 whole entry, looked up): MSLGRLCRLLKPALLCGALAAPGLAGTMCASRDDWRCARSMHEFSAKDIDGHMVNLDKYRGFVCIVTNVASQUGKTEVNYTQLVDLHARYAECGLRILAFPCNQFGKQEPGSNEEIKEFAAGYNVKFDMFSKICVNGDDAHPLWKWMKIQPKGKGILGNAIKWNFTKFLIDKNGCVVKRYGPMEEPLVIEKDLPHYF

COc1cc(C[C@@]2(O)CO[C@@H](c3ccc(O[C@@H]4O[C@H](CO)[C@@H](O)[C@H](O)[C@H]4O)c(OC)c3)[C@H]2CO)ccc1O
inactive: [1] | [3]
inconclusive: [2] 7.33 µM [inhibitor, partial curve, poor fit] | [4] 10 µM [rising, single point]

COc1ccc(C(=O)CC(=O)O)c2c1C=CC(C)(C)O2
inactive: [3]
inconclusive: [2] 13.4 µM [inhibitor, partial curve] | [4] 2.24 µM [rising, partial curve]

C=C1CC[C@@H]2[C@](C)(CC[C@H](O)[C@@]2(C)CCC=C(C)C)[C@@H]1Cc1c[nH]c2ccccc12
inconclusive: [5] 12.6 µM [inhibitor, single point] | [1] 14.2 µM [inhibitor, single point] | [3] 12.6 µM [rising, single point] | [4] 4.47 µM

COC(=O)[C@]1(C)CCC[C@@]2(C)[C@@H]3CC[C@@H]4C[C@@]3(CC[C@@H]21)C[C@H]4C(=O)O
inactive: [5] | [1] | [3] | [4]

CCC(=O)OCC(=O)[C@@]1(OC(=O)CC)[C@@H](C)C[C@H]2[C@@H]3CCC4=CC(=O)C=C[C@]4(C)[C@@]3(F)[C@@H](O)C[C@@]21C
inactive: [7] | [3]
inconclusive: [6] 20 µM [inhibitor, partial curve] | [5] 14.5 µM [inhibitor, partial curve, poor fit] | [8] 2.51 µM [inhibitor, partial curve]

CCCC(=O)Nc1ccc(OCC(O)CNC(C)C)c(C(C)=O)c1 (stereo unspecified)
inactive: [9] | [10] | [12] | [13] | [14] | [15] | [16]
inconclusive: [11] 26.6 µM [cytotoxic, single point] | [3] 35.5 µM [rising, partial curve, poor fit] | [17] 14.1 µM [inhibitor, partial curve, poor fit]

CC(C)C(=O)Nc1cccc(C(F)(F)F)c1
inconclusive: [20] 11.2 µM [inhibitor, partial curve, poor fit] | [1] 29.9 µM [inhibitor, single point]
inactive: [18] | [19] | [14] | [3]
